# Measured values published in PMC12820563.
# This is one part of the list. The list includes weakly bound sequences.
# Biological target: T1, MBP-FoxP3dN (UniProt Q99JB6)
# T1 sequence: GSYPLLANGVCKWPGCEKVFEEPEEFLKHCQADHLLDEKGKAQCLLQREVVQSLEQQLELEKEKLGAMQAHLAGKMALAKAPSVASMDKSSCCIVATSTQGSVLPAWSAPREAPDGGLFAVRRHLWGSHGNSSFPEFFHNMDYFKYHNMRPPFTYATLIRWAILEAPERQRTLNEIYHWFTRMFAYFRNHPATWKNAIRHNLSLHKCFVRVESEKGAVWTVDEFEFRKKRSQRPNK
# Assay: PD-seq (MBP pull-down with sequencing)
# Details: 20 mM Tris-HCl pH 7.5, 100 mM NaCl, 1.5 mM MgCl2, 0.4 uM protein, 0.1 uM dsDNA library, 30 min, room temperature, amylose pull-down; high values mean tight binding; double strand, one strand shown
row,Sequence,binding signal (RPM ratio (pull-down/input))
1,GATGATTGTTCTCCCAGCTGATGAATTATACTCGTCGAGTAAACAAATTTTCCTAATCTTTCTGTTCAAGCGCCATCTAC,0.458
2,GATGATTGTTCTCCCAGCTGATGAATTCATCATGTCGAGTAAACAAATTTTCCTAATCTTTCTGTTCAAGCGCCATCTAC,1.19
3,GATGATTGTTCTCCCAGCTGATGAATTAGTGGAGTCGAGTAAACAAATTTTCCTAATCTTTCTGTTCAAGCGCCATCTAC,0.521
4,GATGATTGTTCTCCCAGCTGATGAATTGGTGCAATCGAGTAAACAAATTTTCCTAATCTTTCTGTTCAAGCGCCATCTAC,3.35
5,GATGATTGTTCTCCCAGCTGATGAATTACTGCGGTCGAGTAAACAAATTTTCCTAATCTTTCTGTTCAAGCGCCATCTAC,0.358
6,GATGATTGTTCTCCCAGCTGATGAATTTTTACATTCGAGTAAACAAATTTTCCTAATCTTTCTGTTCAAGCGCCATCTAC,0.346
7,GATGATTGTTCTCCCAGCTGATGAATTCCCGACCTCGAGTAAACAAATTTTCCTAATCTTTCTGTTCAAGCGCCATCTAC,0.187
8,GATGATTGTTCTCCCAGCTGATGAATTTGACAACTCGAGTAAACAAATTTTCCTAATCTTTCTGTTCAAGCGCCATCTAC,0.508
9,GATGATTGTTCTCCCAGCTGATGAATTCAAACTATCGAGTAAACAAATTTTCCTAATCTTTCTGTTCAAGCGCCATCTAC,0.471
10,GATGATTGTTCTCCCAGCTGATGAATTCCGGTAATCGAGTAAACAAATTTTCCTAATCTTTCTGTTCAAGCGCCATCTAC,0.462
11,GATGATTGTTCTCCCAGCTGATGAATTTGCCTACTCGAGTAAACAAATTTTCCTAATCTTTCTGTTCAAGCGCCATCTAC,1.46
12,GATGATTGTTCTCCCAGCTGATGAATTGTCAAATTCGAGTAAACAAATTTTCCTAATCTTTCTGTTCAAGCGCCATCTAC,0.311
13,GATGATTGTTCTCCCAGCTGATGAATTTCCTATCTCGAGTAAACAAATTTTCCTAATCTTTCTGTTCAAGCGCCATCTAC,0.313
14,GATGATTGTTCTCCCAGCTGATGAATTCTAGAATTCGAGTAAACAAATTTTCCTAATCTTTCTGTTCAAGCGCCATCTAC,0.547
15,GATGATTGTTCTCCCAGCTGATGAATTAAAGTAGTCGAGTAAACAAATTTTCCTAATCTTTCTGTTCAAGCGCCATCTAC,0.35
16,GATGATTGTTCTCCCAGCTGATGAATTGGTTTGTTCGAGTAAACAAATTTTCCTAATCTTTCTGTTCAAGCGCCATCTAC,5.26
17,GATGATTGTTCTCCCAGCTGATGAATTTAATGGCTCGAGTAAACAAATTTTCCTAATCTTTCTGTTCAAGCGCCATCTAC,1.03
18,GATGATTGTTCTCCCAGCTGATGAATTAATGTTTTCGAGTAAACAAATTTTCCTAATCTTTCTGTTCAAGCGCCATCTAC,2.06
